Assay results from patent publication US9777070B2, “Anti-PTK7 antibody-drug conjugates” (Pfizer Inc., priority 2014, dated 2017).

Assays:
BR5 TNBC PDX = assay: In vivo efficacy, PDX tumor growth; set-up: species or system human tumor in mice
Description: The effects of anti-PTK7 antibody-drug conjugates were further evaluated on the in vivo growth of human tumor patient-derived xenografts (PDX). Primary tumor resection samples were procured from clinical sites following Institutional Review Board for the Protection of Human Subjects approval and in accordance with HIPAA regulations. Tumor fragments were stored and shipped in Hypothermasol (Biolife Solutions) on ice and were embedded in Matrigel (BD) containing a proprietary mix of growth factors and implanted subcutaneously into the mammary fatpad of female NOD/SCID mice within 24 hours of resection. Mice were monitored for health status daily and for tumor growth initially by visual inspection twice per week. Once the tumors were palpable, measurements of tumor volume began to track tumor growth and estimate cell doubling time. Tumor volume was estimated using the equation V=(A*B^2)/2 where A is the long axis and B is the short axis. When tumors reached a volume of 500 mm^3 to 1,500 mm^3, they were harvested for study and for re-transplant as a patient-derived xenograft (PDX). Depending on the line, mechanical and/or chemical dissociation can be used to separate the individual cells for passage. Live cells were inoculated into naïve animals with 10,000 to 50,000 cells per animals
For efficacy studies, tumors were harvested from passaging studies and cells were dissociated into single cell suspension. Preparations were counted for live cells using Trypan blue exclusion and 10,000 to 50,000 cells were inoculated per mouse in Matrigel. […] Tumor growth was initially followed by palpability with measurements beginning once tumor volumes reached about 30 mm^3. Studies were randomized based on tumor size once a cohort of tumor-bearing mice reached 140 mm^3 to 180 mm^3. Animals were dosed by intraperitoneal injection twice a week for two weeks (q4dx4). […]
Tumor measurements were recorded twice a week using digital calipers and are shown as Mean±SEM. […]
Animals were dosed every four days for four cycles (Q4Dx4) by intraperitoneal injection except the BR5 study which was by intravenous injection on the same schedule. Tumor measurements were recorded one or two times per week using digital calipers and tumor volume was estimated using the equation V=(A×B^2)/2 where A is the long axis and B is the short axis. Animal body weights were measured and recorded at least once a week. […]
Tumor growth inhibition (TGI) was calculated using the equation % TGI=[1−(mean tumor volume of treated)/(mean tumor volume of vehicle)]. TGI was calculated at the latest possible time point, which was typically the last measurement before the control group was discontinued as described above. […]

[1] = molecular target: T1, PTK7 on H1975 and EKVX cells (Homo sapiens, UniProt Q13308); assay: Flow cytometry cell binding of conjugated and unconjugated hu24
T1 construct: cancer cell lines with endogenous expression of PTK7; endogenous in cells; host or cells: cultured cancer cell lines (e.g. H661, H446, U2OS, H520, H1048, OE19, OE21, H1975, EKVX)
T1 sequence (Q13308 31-1070): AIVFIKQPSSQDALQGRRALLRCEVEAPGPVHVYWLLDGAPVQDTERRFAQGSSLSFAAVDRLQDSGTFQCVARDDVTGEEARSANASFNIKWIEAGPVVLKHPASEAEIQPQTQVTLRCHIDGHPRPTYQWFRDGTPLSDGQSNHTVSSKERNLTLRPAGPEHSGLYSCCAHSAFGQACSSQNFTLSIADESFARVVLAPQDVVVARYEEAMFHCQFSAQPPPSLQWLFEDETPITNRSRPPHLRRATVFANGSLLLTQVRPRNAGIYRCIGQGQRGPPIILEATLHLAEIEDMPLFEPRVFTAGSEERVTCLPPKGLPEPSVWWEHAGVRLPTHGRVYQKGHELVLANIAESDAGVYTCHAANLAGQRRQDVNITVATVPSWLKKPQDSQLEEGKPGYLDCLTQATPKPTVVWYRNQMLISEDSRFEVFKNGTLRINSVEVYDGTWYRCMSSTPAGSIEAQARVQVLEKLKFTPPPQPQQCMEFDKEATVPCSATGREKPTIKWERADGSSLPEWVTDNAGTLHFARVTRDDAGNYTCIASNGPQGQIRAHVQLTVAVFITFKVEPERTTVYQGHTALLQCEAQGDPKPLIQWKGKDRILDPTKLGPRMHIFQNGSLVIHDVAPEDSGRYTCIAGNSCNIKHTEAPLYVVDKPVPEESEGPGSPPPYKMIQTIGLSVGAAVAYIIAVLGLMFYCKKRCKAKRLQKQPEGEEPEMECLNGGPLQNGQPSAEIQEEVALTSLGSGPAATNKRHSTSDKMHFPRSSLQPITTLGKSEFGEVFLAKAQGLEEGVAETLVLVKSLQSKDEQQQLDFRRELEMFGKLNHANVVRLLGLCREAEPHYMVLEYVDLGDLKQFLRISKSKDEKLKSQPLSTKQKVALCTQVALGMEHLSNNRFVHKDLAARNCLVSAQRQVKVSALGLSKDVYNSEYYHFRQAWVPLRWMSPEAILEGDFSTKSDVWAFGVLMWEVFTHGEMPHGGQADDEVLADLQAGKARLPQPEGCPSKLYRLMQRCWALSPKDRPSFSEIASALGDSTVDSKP
Procedure: Briefly, adherent cells were dissociated with TrypLE™ Express (Gibco® No 12604-021) which was then neutralized with culture media. Suspension cells were harvested by centrifugation. Cells were resuspended in staining buffer (PBS with 3% BSA) with the stated concentration of mAb and incubated on ice for 30 minutes. Cells were washed in staining buffer, resuspended in staining buffer with phycoerythrin (PE)-labeled anti-human antibody (Jackson ImmunoResearch No 109-115-098) and incubated on ice for 30 minutes. Cells were washed, resuspended in staining buffer with 7-AAD viability stain (BD Biosciences, Pharmingen No 51-68981E) and analyzed by flow cytometry with a BD FACSCalibur™. The mean fluorescence intensity (MFI) in the PE channel of the viable cell population was determined for each sample.

Molecule	Regression (TTP, Days) or % TGI (BR5 TNBC PDX; 3 mg/kg, Q4Dx4 iv)	effect on tumor growth (BR5 TNBC PDX; BR5, Q4Dx4, FIG. 16)	mean channel fluorescence of the viable cell population ([1]; EKVX, 0.1 μg/mL)	mean channel fluorescence of the viable cell population ([1]; EKVX, 0.3 μg/mL)	mean channel fluorescence of the viable cell population ([1]; EKVX, 1 μg/mL)	mean channel fluorescence of the viable cell population ([1]; EKVX, 3 μg/mL)	mean channel fluorescence of the viable cell population ([1]; H1975, 0.1 μg/mL)	mean channel fluorescence of the viable cell population ([1]; H1975, 0.3 μg/mL)	mean channel fluorescence of the viable cell population ([1]; H1975, 1 μg/mL)	mean channel fluorescence of the viable cell population ([1]; H1975, 3 μg/mL)	Regression (TTP, Days) (BR5 TNBC PDX; 3 mg/kg, Q4Dx4 iv)	tumor regression without tumor growth through day (BR5 TNBC PDX; BR5, 3 mg/kg, Q4Dx4, intravenous, FIG. 16) [days]
hu24 (antibody) heavy: QVQLVQSGPEVKKPGASVKVSCKASGYTFTDYAVHWVRQAPGKRLEWIGVISTYNDYTYNNQDFKGRVTMTRDTSASTAYMELSRLRSEDTAVYYCARGNSYFYALDYWGQGTSVTVSS[letters of human IgG1 constant region omitted] light: EIVLTQSPATLSLSPGERATLSCRASESVDSYGKSFMHWYQQKPGQAPRLLIYRASNLESGIPARFSGSGSGTDFTLTISSLEPEDFAVYYCQQSNEDPWTFGGGTKLEIKRTVAAPSVFIFPPSDEQLKSGTASVVCLLNNFYPREAKVQWKVDNALQSGNSQESVTEQDSKDSTYSLSSTLTLSKADYEKHKVYACEVTHQGLSSPVTKSFNRGEC	None	did not inhibit tumor growth	4	4	4	5	91	183	310	348		
hu24-vc0101: hu24 conjugated through cysteines to vc0101 linker-payload; average DAR approximately 4 (conjugate) heavy: QVQLVQSGPEVKKPGASVKVSCKASGYTFTDYAVHWVRQAPGKRLEWIGVISTYNDYTYNNQDFKGRVTMTRDTSASTAYMELSRLRSEDTAVYYCARGNSYFYALDYWGQGTSVTVSS[letters of human IgG1 constant region omitted] light: EIVLTQSPATLSLSPGERATLSCRASESVDSYGKSFMHWYQQKPGQAPRLLIYRASNLESGIPARFSGSGSGTDFTLTISSLEPEDFAVYYCQQSNEDPWTFGGGTKLEIKRTVAAPSVFIFPPSDEQLKSGTASVVCLLNNFYPREAKVQWKVDNALQSGNSQESVTEQDSKDSTYSLSSTLTLSKADYEKHKVYACEVTHQGLSSPVTKSFNRGEC			4	4	4	5	94	196	302	341	Regression (49) Days	≥ 49
